These results are taken from PubChem BioAssay AID1745853 (National Center for Advancing Translational Sciences (NCATS), 2022).

Where “and” joins values, the source holds several entries; their conditions need not be identical. Equal entries are not always repeated. Some of the results follow. The main result of the screen is listed elsewhere. These columns were measured beside it and carry no call.

What all share (assay): Primary Screen for Target Class Profiling of Small Molecule Inhibitors of Methyltransferases
Assay [1] has as its target Glycine N-methyltransferase (Homo sapiens) (UniProt Q14749). As to conditions: purified enzyme, MTase-Glo SAH luminescence; measured here: GNMT inhibition; at 40 µM; stronger effect = lower value. In outline:
(§1)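 Each enzyme was reacted with SAM and its substrate, with compounds tested once at 40 uM; SAH formed was read by MTase-Glo luminescence.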

Assay [2] concerns the target Guanidinoacetate N-methyltransferase (Homo sapiens) (UniProt Q14353). Conditions: purified enzyme, MTase-Glo SAH luminescence; measured here: GAMT inhibition; at 40 µM; stronger effect = lower value. In outline: as §1
The target in assay [3] is Histamine N-methyltransferase (Homo sapiens) (UniProt P50135). Conditions: purified enzyme, MTase-Glo SAH luminescence; measured here: HNMT inhibition; at 40 µM; stronger effect = lower value. In outline:
as §1

Assay [4] concerns the target Nicotinamide N-methyltransferase (Homo sapiens) (UniProt P40261). Conditions: purified enzyme, MTase-Glo SAH luminescence; measured here: NNMT inhibition; at 40 µM; stronger effect = lower value. In outline: as §1
In assay [5] the target is Phenylethanolamine N-methyltransferase (Homo sapiens) (UniProt P11086). As to conditions: purified enzyme, MTase-Glo SAH luminescence; measured here: PNMT inhibition; at 40 µM; stronger effect = lower value. In outline: as §1
On the % scale 0 is the no-effect control and ±100 the full control effect.

On to `COc1ccc(C2c3cccn3-c3ccccc3CN2C(=O)Nc2cccc(Cl)c2C)cc1OC` (stereo not drawn), for which the activity change, negative = inhibition in assay [1] turned out to be 11.4%; in assay [2], 0.608%; in assay [3], 7.09%; in assay [4], 0.96%; in assay [5] it was 7.67%.
For `C[C@H]1C(=O)O[C@H]2[C@H](O)[C@]34C5OC(=O)[C@]3(O[C@@H]3OC(=O)[C@H](O)C34[C@H](C(C)(C)C)[C@H]5O)C12O` (stereo partly drawn), in that order: 3.22%, 8.16%, 7.79%, -4.5% and 6.32%.
For `C=CC(C)(C)c1[nH]c2cccc3c2c1C[C@@H]1[C@@H]3[C@@H](OC(C)=O)[C@H](C)CN1C`, in that order: 3.6%, 10.6%, 4.39%, -3.79% and 7.1%.
For `OCCCCC#Cc1cncc(OC[C@@H]2CCN2)c1`, in that order: -1.6%, 5.75%, 9.05%, -7.65% and 1.95%.
As to `CC[C@@H](C(N)=O)N1CCCC1=O`, the activity change, negative = inhibition was 3.85% in assay [1]; 8.74% in assay [2]; 3.05% in assay [3]; -3.18% in assay [4]; 5.44% in assay [5].
For `NCC(O)c1cc(O)c(O)cc1F` (stereo not drawn), in that order: -27.4%, 3.79%, -0.757%, -8% and 31.6%.
For `Cc1cc(NC(=O)N2Cc3ccccc3-n3cccc3C2C)ccc1Br` (stereo not drawn), in that order: 9.13%, 2.01%, 2.36%, 4.61% and 7.03%.
Consider `Fc1cc(F)c2c(c1)C1C=CCC1C(c1cccnc1)N2` (stereo not drawn), for which the activity change, negative = inhibition was 4.55% and -21.3% in assay [1]; -4.11% in assay [2]; 6.58% and -9% in assay [3]; -16.1% in assay [4]; -32.5% in assay [5].
For the molecule `O=C(Nc1ccccc1C(F)(F)F)N1Cc2ccccc2-n2cccc2C1c1cccs1` (stereo not drawn), the activity change, negative = inhibition in assay [1] is 6.61%; in assay [2], 0.045%; in assay [3] it was 1.54%; in assay [4] it was -0.04%; in assay [5] it was 6.03%.
For `COC(=O)CCNC(=O)N1Cc2ccccc2-n2cccc2C1c1cccs1` (stereo not drawn), in that order: 1.18%, 2.35%, -9.41%, -5.06% and -2.16%.
Turning to `CCS(=O)(=O)Nc1cccc(C(=C2CCCCC2)c2cnc[nH]2)c1`, the activity change, negative = inhibition is -5.06% in assay [1]; 9.59% in assay [2]; 0.092% in assay [3]; -10.7% in assay [4]; 10.7% in assay [5].
For `Cc1cccc(NC(=O)N2Cc3ccccc3-n3cccc3C2c2ccc(N(C)C)cc2)c1C` (stereo not drawn), the activity change, negative = inhibition is 9.78% in assay [1]; 0% in assay [2]; 0.104% in assay [3]; 8.63% in assay [4]; 7.26% in assay [5].
In the case of `Cc1[nH]c2ccc(O)cc2c1CCN`, the activity change, negative = inhibition was -4.32% in assay [1]; 8.64% in assay [2]; -14.3% in assay [3]; -7.22% in assay [4]; -4.17% in assay [5].
For `COc1ccccc1NC(=O)N1Cc2ccccc2-n2cccc2C1c1cccc(Cl)c1` (stereo not drawn), in that order: 15.2%, 1.18%, 7.39%, 8.88% and 9.44%.
For `COc1ccc(C(=O)N2CCCC2=O)cc1`, in that order: 1.81%, 11.7%, 6.13%, -3.63% and 8.89%.
Regarding `COc1ccc(NC(=O)N2Cc3ccccc3-n3cccc3C2c2ccc(OC)cc2)cc1` (stereo not drawn), the activity change, negative = inhibition is 2.15% in assay [1]; 4.95% in assay [2]; -7.18% in assay [3]; -8.03% in assay [4]; 0.963% in assay [5].
In the case of `O=C1/C(=C/c2ccccc2)C[C@@]2(O)[C@H]3Cc4ccc(O)c5c4[C@@]2(CCN3CC2CC2)[C@H]1O5`, the activity change, negative = inhibition is -11.9% in assay [1]; 13.9% in assay [2]; -4.66% in assay [3]; -0.232% in assay [4]; 9.22% in assay [5].
`O=C(O)C1=NOC2CN(Cc3ccccc3)CC12` (stereo not drawn): the activity change, negative = inhibition in assay [1] is -5.89%; in assay [2] it was -6.84%; in assay [3] it was -3.83%; in assay [4] it was -13.5%; in assay [5], 2.04%.
On to `COc1ccc(NC(=O)N2Cc3ccccc3-n3cccc3C2c2ccc(N(C)C)cc2)cc1` (stereo not drawn), for which the activity change, negative = inhibition was 3.85% in assay [1]; 4.4% in assay [2]; -2.29% in assay [3]; -3.57% in assay [4]; -4.89% in assay [5].
Turning to `COc1ccc(C2c3cccn3-c3ccccc3CN2C(=O)Nc2ccc(Br)cc2)cc1` (stereo not drawn), the activity change, negative = inhibition in assay [1] came to 8.5%; in assay [2], 0%; in assay [3] it was 1.5%; in assay [4], 2.95%; in assay [5], 6.5%.
For `CCOc1ccc(C2c3cccn3-c3ccccc3CN2C(=O)Nc2ccc(C)c(Cl)c2)cc1` (stereo not drawn), in that order: -5.96%, -2.87%, -1%, -2.47% and -3.55%.
For `CC[C@H](O)[C@@H](C)[C@H]1O[C@@H]1C[C@H](C)/C=C/C=C(\C)[C@H]1OC(=O)C[C@H](O)CC[C@@](C)(O)[C@@H](OC(C)=O)/C=C/[C@@H]1C`, in that order: 4.39%, -0.936%, -0.297%, -17.7% and -8.09%.
Consider `CC[C@H](C)[C@H](NC(=O)[C@H]1CCCCN1C)C(=O)N(COC(=O)CC(C)C)[C@H](C[C@@H](OC(C)=O)c1nc(C(=O)N[C@@H](Cc2ccc(O)cc2)C[C@H](C)C(=O)O)cs1)C(C)C`, for which the activity change, negative = inhibition in assay [1] is 6.37%; in assay [2], 9.21%; in assay [3] it was 3.1%; in assay [4] it was -12.6%; in assay [5], -6.4%.
As for `COC[C@@H]1OC(=O)/C(=C\N(C)CCCN(C)C)C2=C(O)C(=O)C3=C([C@@H](OC(C)=O)C[C@@]4(C)[C@@H]3CC[C@@H]4O)[C@@]21C`, the activity change, negative = inhibition is 5.11% in assay [2], -10.1% in assay [4] and -17.7% in assay [5].
Turning to `COC1CC(OC2CCC3(C)C(=CCC4C3CCC3(C)C(C(C)OC5OC(COC6OC(CO)C(O)C(O)C6O)C(O)C(O)C5O)CCC43O)C2)OC(C)C1OC1OC(C)C(O)C(OC)C1O` (stereo not drawn), the activity change, negative = inhibition in assay [1] is 5.2%; in assay [2], 6.47%; in assay [3], 1.53%; in assay [4] it was -6.84%; in assay [5] it was 6.76%.
For `CCOCCCNC(=O)N1Cc2ccccc2-n2cccc2C1c1ccc(OC)c(OC)c1` (stereo not drawn), in that order: 10.7%, 0%, 4.4%, -0.693% and 6.08%.
